# Assay results: PubChem BioAssay (Tox21)
# Values joined by “and” are separate entries in the source; they are usually repeats but may differ in a detail not shown here. Equal entries are not always repeated. Inconclusive results, whose numbers are uncertain, are shown with a selection of clear calls. For part of these data: Potencies beside an inconclusive call are fits to weak or partial responses and may not hold up. Active and inactive are the calls of the source. Unless noted, calls come from the whole dose curve; as a rule, active = well fitted curve in the direction sought with a large enough effect in the repeat runs; inconclusive = weak or mixed curves; inactive = no such curve, though single readings can be large; an effect the other way counts as inactive or inconclusive.
# Assays:
# [1] = target: Nuclear receptor subfamily 1 group I member 2 (Homo sapiens) (UniProt O75469); test: CYP3A4 induction through human pregnane X receptor (PXR) by small molecules, qHTS assay (AID 1346984); note: % is set by controls: 0 for no effect and ±100 for the full control effect; nearly all actives have a fitted effect of over 40% in size
# In short: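 DPX-2 HepG2 cells carrying a PXR response element and CYP3A4-promoter luciferase construct, treated with compounds 24 hr at 37C. Then P450-Glo CYP3A4 Luciferin-IPA substrate (3uM final) for 3 hr at 37C, One-Glo added, luminescence read.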
# [2] = target: Acetylcholinesterase (Homo sapiens) (UniProt P22303); test: Acetylcholinesterase (AChE) small molecule antagonists: colormetric cell-based qHTS assay (AID 1347395; calls by dose curve; note: potency is the fitted concentration of half-maximal effect; nearly all actives have a fitted effect of over 30% in size)
# In short: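 Colorimetric read-out: DTNB detects thiocholine released when cellular AChE in SH-SY5Y cells hydrolyses acetylthiocholine. Cells attached overnight, received compound for 30 min at 37 C, then substrate mix for 90 min at 37 C.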
# [3] = target: Acetylcholinesterase (Homo sapiens) (UniProt P22303); test: Acetylcholinesterase (AChE) small molecule antagonists: enzyme-based qHTS assay (AID 1347397; calls by dose curve; note: % is set by controls: 0 for no effect and ±100 for the full control effect; nearly all actives have a fitted effect of over 55% in size); conditions: Potency: AChE enzyme activity inhibition
# In short: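 Recombinant human AChE (50 mU/mL) preincubated with compound 30 min at room temperature; acetylthiocholine plus DTNB then added, and thiocholine formation read colorimetrically after 10 min at room temperature. DMSO served as vehicle control.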
# [4] = qHTS assay to identify small molecule antagonists of the TGF-beta/Smad signaling pathway (AID 1346924; active = well fitted inhibition curve with a large enough effect in the signal ratio in the repeat runs, not every such curve was filed as active; inconclusive = weak or mixed curves; the % refers to the signal ratio); conditions: SBE-bla HEK293T, TGF-beta/Smad reporter, beta-lactamase ratio; activity, negative = inhibition: at 76.8 µM (top of the series) unless noted
# In short: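 SBE-bla HEK 293T cells were plated overnight, then received compound in DMSO plus TGF-beta1 (added as a 0.25 ng/mL solution) and were incubated 5 h at 37 C. Beta-lactamase reporter activity was read after 2 h at room temperature with LiveBLAzer B/G FRET substrate (ex 405, em 460/530 nm).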
# [5] = target: Cytochrome P450 2C19 (Homo sapiens) (UniProt P33261); test: Cytochrome P450 Family 2 Subfamily C Member 19 (CYP2C19) small molecule antagonists: luciferase reporter qHTS assay (AID 1671197); note: nearly all actives have a fitted effect of over 65% in size; note: potency is the fitted concentration of half-maximal effect
# In short: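 P450-Glo CYP2C19 system: enzyme-substrate mix with compound 10 min at room temperature, then NADPH regeneration solution, 1 h at 37C. Proluciferin-to-luciferin conversion detected by luminescence after 20 min with detection reagent; ketoconazole as positive control.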
# [6] = Human pregnane X receptor (PXR) small molecule agonists, qHTS cell viability counter screen (AID 1346977); note: nearly all actives have a fitted effect of over 50% in size; note: potency is the fitted concentration of half-maximal effect
# In short: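 PXR-Luc HepG2, 2,000 cells/well, 5% charcoal-stripped FBS; 5hr settle; cpd 24hr, 37C/5% CO2; CellTiter-Fluor at 23hr, read 1hr later (fluorescence).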
# [7] = target: Cytochrome P450 2D6 (Homo sapiens) (UniProt P10635); test: Cytochrome P450 Family 2 Subfamily D Member 6 (CYP2D6) small molecule antagonists: luciferase reporter qHTS assay (AID 1671196); note: potency is the fitted concentration of half-maximal effect; nearly all actives have a fitted effect of over 50% in size
# In short: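 Cell-free P450-Glo system: CYP2D6 with proluciferin substrate was pre-incubated with compound for 10 min, then reacted with NADPH regeneration for 1 h at room temperature. Luciferin product was detected after 20 min, and data were reported as relative luminescence units.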
# [8] = target: Acetylcholinesterase (Homo sapiens) (UniProt P22303); test: Acetylcholinesterase (AChE) small molecule antagonists: fluorescence cell-based qHTS assay (AID 1347398; calls by dose curve; note: potency is the fitted concentration of half-maximal effect; nearly all actives have a fitted effect of over 50% in size); conditions: Potency: AChE activity
# In short: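 SH-SY5Y cells (2000/well), attached overnight, incubated with compound 30 min at 37 C. Acetylthiocholine plus Thiolite Green then added for 40 min at room temperature. Thiocholine fluorescence (Ex/Em 490/520 nm) reports cellular AChE activity.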
# [9] = target: Acetylcholinesterase (Homo sapiens) (UniProt P22303); test: Acetylcholinesterase (AChE) small molecule antagonists: enzyme-based qHTS assay with human liver microsomes (AID 1347399; calls by dose curve; note: potency is the fitted concentration of half-maximal effect; nearly all actives have a fitted effect of over 60% in size); conditions: Potency: qHTS inhibition
# In short: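 Recombinant human AChE (50 mU/mL in the enzyme mix) and human liver microsomes (0.25 mg/mL final) were preincubated with compound and NADPH (0.25 mg/mL final) for 30 min at 37 C. Acetylthiocholine/DTNB was then added; thiocholine was read colorimetrically after 10 min at room temperature.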
# [10] = target: Nuclear receptor subfamily 1 group I member 2 (Homo sapiens) (UniProt O75469); test: Human pregnane X receptor (PXR) small molecule agonists, qHTS assay (AID 1346982); note: potency is the fitted concentration of half-maximal effect; nearly all actives have a fitted effect of over 35% in size
# In short: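 PXR-Luc HepG2 reporter cells (CYP3A4-driven luciferase) in 5% charcoal-stripped FBS medium, plated 5 h before compound addition, then treated 24 h at 37C. Luciferase read by ONE-Glo luminescence after 30 min at room temperature.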
# Tags give direction and shape of the fitted curve.
# UniProt P10635, sequence (P10635 whole entry, looked up): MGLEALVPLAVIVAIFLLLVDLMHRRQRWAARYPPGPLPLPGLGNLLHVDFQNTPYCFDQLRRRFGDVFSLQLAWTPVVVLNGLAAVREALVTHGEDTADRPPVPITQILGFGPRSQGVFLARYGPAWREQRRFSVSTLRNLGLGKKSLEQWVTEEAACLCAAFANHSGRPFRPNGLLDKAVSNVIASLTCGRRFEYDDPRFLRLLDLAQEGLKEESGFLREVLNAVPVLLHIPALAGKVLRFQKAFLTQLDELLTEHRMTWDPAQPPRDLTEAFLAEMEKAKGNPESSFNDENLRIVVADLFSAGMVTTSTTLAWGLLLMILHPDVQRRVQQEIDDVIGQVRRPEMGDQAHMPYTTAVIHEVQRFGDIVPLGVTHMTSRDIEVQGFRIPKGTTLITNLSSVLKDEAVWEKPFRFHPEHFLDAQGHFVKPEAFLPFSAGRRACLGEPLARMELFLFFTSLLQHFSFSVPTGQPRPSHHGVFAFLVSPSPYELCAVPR
# UniProt P22303, sequence (P22303 whole entry, looked up): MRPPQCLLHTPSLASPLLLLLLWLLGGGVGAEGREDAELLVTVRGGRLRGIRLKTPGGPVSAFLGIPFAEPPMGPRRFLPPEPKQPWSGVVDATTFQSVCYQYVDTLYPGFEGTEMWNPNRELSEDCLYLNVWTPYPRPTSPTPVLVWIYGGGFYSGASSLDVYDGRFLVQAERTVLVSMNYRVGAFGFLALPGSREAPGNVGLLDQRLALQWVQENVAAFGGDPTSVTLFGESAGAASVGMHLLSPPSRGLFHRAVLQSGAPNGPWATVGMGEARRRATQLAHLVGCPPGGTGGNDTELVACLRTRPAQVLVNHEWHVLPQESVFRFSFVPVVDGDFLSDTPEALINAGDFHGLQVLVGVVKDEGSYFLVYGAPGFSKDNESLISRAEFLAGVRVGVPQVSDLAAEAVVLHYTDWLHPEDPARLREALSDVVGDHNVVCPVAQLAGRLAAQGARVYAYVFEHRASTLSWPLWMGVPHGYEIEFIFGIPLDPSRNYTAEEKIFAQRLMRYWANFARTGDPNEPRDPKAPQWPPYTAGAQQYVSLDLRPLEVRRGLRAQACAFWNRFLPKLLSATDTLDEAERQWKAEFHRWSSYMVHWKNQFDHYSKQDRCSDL
# UniProt P33261, sequence (P33261 whole entry, looked up): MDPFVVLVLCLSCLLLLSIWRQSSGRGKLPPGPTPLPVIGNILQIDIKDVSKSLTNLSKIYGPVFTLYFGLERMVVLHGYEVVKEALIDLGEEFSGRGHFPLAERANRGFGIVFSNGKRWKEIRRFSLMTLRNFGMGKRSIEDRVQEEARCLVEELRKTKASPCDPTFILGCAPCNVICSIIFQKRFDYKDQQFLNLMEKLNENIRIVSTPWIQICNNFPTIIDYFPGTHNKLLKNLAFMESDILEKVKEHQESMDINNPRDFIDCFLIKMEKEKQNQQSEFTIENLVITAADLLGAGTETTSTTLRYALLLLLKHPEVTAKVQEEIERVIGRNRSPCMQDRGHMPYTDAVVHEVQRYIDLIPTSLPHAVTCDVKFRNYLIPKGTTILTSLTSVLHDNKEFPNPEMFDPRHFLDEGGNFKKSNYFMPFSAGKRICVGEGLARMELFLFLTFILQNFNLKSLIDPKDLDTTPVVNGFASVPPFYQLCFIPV
# UniProt O75469, sequence (O75469 whole entry, looked up): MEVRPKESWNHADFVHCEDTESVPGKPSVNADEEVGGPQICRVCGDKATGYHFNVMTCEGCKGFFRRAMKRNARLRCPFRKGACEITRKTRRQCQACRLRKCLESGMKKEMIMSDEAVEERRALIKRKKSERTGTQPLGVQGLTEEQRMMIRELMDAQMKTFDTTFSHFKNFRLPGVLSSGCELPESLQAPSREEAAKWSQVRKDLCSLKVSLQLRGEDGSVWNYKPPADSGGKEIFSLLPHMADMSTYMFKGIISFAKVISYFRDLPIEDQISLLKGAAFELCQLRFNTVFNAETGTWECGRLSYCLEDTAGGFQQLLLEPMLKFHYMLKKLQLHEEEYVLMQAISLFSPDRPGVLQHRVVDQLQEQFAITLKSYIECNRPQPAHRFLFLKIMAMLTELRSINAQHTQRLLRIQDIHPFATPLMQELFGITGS
compound,measurement,setting,value
COC(C)(C)CCCC(C)C/C=C/C(C)=C/C(=O)OC(C)C (centres undefined),Potency,[1],inactive
CNC(=O)O/N=C(\SC)C(=O)N(C)C,Potency,[2],active: 1.55 µM and active: 1.42 µM
OCCCBr,Potency,[2],"inconclusive: 71 µM [inhibitor, partial curve]"
N#CN,Potency,[3],inactive
CC(=O)C=C(C)C,"activity, negative = inhibition",[4],inconclusive: -28.5%
same,Potency,[5],"inconclusive: 37.3 µM [inhibitor, single point]"
O=[N+]([O-])c1ccccc1O,"activity, negative = inhibition",[4],inconclusive: 12.8%
same,Potency,[5],inactive
CC(=O)[O-].[Tl+],Potency,[6],active: 27.5 µM
CC(C)(C)C(O)C(Oc1ccc(Cl)cc1)n1cncn1 (centres undefined),"activity, negative = inhibition",[4],inconclusive: 5.89%
same,Potency,[7],inconclusive: 50.2 µM [inhibitor]
BrCC(Br)C1CCC(Br)C(Br)C1 (centres undefined),"activity, negative = inhibition",[4],inconclusive: -34%
same,Potency,[7],"inconclusive: 63 µM [inhibitor, partial curve]"
CCOP(=S)(OCC)Oc1cc(C)nc(N(CC)CC)n1,Potency,[6],inactive
O=[N+]([O-])c1cccc2ccccc12,Potency,[6],inactive
CCOP(=O)(OCC)Oc1cc(C)nc(C(C)C)n1,"activity, negative = inhibition",[4],inconclusive: -0.898%
same,Potency,[8],active: 0.714 µM
same,Potency,[9],active: 25.3 µM
same,Potency,[5],"inconclusive: 89.9 µM [inhibitor, single point]"
CCOCCOC(C)=O,"activity, negative = inhibition",[4],inconclusive: -19%
same,Potency,[10],"inconclusive: 43.3 µM [activator, partial curve, poor fit]"
same,Potency,[7],active: 71 µM
same,Potency,[5],active: 79.6 µM
CC1CC(CC2CCC(N)C(C)C2)CCC1N (centres undefined),Potency,[6],"inconclusive: 27.8 µM [cytotoxic, partial curve]"
